Source: the supplement of paper PMC8728848
This is one part of the list.

Assays:
Assay in all cases: glycan array binding signal (z-score within array); higher = stronger binding
Conditions in all cases: glycan notation: IUPAC condensed, linker removed
[1] = molecular target: Neu5Ac(a2-6)GlcNAc(b1-4)GlcNAc(b1-4)GlcNAc
Method in brief: (§1)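 The Consortium for Functional Glycomics database supplied 3228 glycan arrays, of which those lacking an available protein sequence were dropped. The binding signal, a within-array Z-score, was averaged across arrays of the same protein sequence and across linkers. Negative scores can be read as non-binding.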

[2] = molecular target: Neu5Ac(a2-8)Neu5Ac
Method in brief: as §1

[3] = molecular target: Neu5Ac(a2-8)Neu5Ac(a2-3)Gal(b1-3)GalNAc(b1-4)[Neu5Ac(a2-3)]Gal(b1-4)Glc
Method in brief: as §1

[4] = molecular target: Neu5Ac(a2-8)Neu5Ac(a2-3)Gal(b1-3)GalNAc(b1-4)[Neu5Ac(a2-8)Neu5Ac(a2-3)]Gal(b1-4)Glc
Method in brief: as §1

[5] = molecular target: Neu5Ac(a2-8)Neu5Ac(a2-3)Gal(b1-4)Glc
Method in brief: as §1

[6] = molecular target: Neu5Ac(a2-8)Neu5Ac(a2-3)Gal(b1-4)GlcNAc
Method in brief: as §1

[7] = molecular target: Neu5Ac(a2-8)Neu5Ac(a2-3)[Gal(b1-3)GalNAc(b1-4)]Gal(b1-4)Glc
Method in brief: as §1

[8] = molecular target: Neu5Ac(a2-8)Neu5Ac(a2-3)[GalNAc(b1-4)]Gal(b1-4)Glc
Method in brief: as §1

[9] = molecular target: Neu5Ac(a2-8)Neu5Ac(a2-8)Neu5Ac
Method in brief: as §1

[10] = molecular target: Neu5Ac(a2-8)Neu5Ac(a2-8)Neu5Ac(a2-3)Gal(b1-4)Glc
Method in brief: as §1

[11] = molecular target: Neu5Ac(a2-8)Neu5Ac(a2-8)Neu5Ac(a2-3)[Gal(b1-3)GalNAc(b1-4)]Gal(b1-4)Glc
Method in brief: as §1

[12] = molecular target: Neu5Ac(a2-8)Neu5Ac(a2-8)Neu5Ac(a2-3)[GalNAc(b1-4)]Gal(b1-4)Glc
Method in brief: as §1

[13] = molecular target: Neu5Ac(a2-8)Neu5Ac(a2-8)Neu5Ac(a2-8)Neu5Ac(a2-3)[GalNAc(b1-4)]Gal(b1-4)Glc
Method in brief: as §1

[14] = molecular target: Neu5Ac(a2-8)Neu5Gc(a2-3)Gal(b1-4)GlcNAc
Method in brief: as §1

[15] = molecular target: Neu5Ac(b2-6)Gal(b1-4)GlcNAc
Method in brief: as §1

[16] = molecular target: Neu5Ac(b2-6)GalNAc
Method in brief: as §1

[17] = molecular target: Neu5Ac9Ac(a2-3)Gal(b1-3)GlcNAc
Method in brief: as §1

[18] = molecular target: Neu5Ac9Ac(a2-3)Gal(b1-4)GlcNAc
Method in brief: as §1

[19] = molecular target: Neu5Ac9Ac(a2-6)Gal(b1-4)GlcNAc
Method in brief: as §1

[20] = molecular target: Neu5Gc(a2-3)Gal(b1-3)GlcNAc
Method in brief: as §1

[21] = molecular target: Neu5Gc(a2-3)Gal(b1-3)[Fuc(a1-4)]GlcNAc
Method in brief: as §1

[22] = molecular target: Neu5Gc(a2-3)Gal(b1-4)Glc
Method in brief: as §1

[23] = molecular target: Neu5Gc(a2-3)Gal(b1-4)GlcNAc
Method in brief: as §1

[24] = molecular target: Neu5Gc(a2-3)Gal(b1-4)GlcNAc(b1-3)Gal(b1-4)GlcNAc(b1-2)Man(a1-3)[Neu5Gc(a2-3)Gal(b1-4)GlcNAc(b1-3)Gal(b1-4)GlcNAc(b1-2)Man(a1-6)]Man(b1-4)GlcNAc(b1-4)GlcNAc
Method in brief: as §1

[25] = molecular target: Neu5Gc(a2-3)Gal(b1-4)[Fuc(a1-3)]GlcNAc
Method in brief: as §1

[26] = molecular target: Neu5Gc(a2-6)Gal(b1-4)GlcNAc
Method in brief: as §1

[27] = molecular target: Neu5Gc(a2-6)GalNAc
Method in brief: as §1

[28] = molecular target: Neu5Gc(a2-8)Neu5Ac(a2-3)Gal(b1-4)GlcNAc
Method in brief: as §1

[29] = molecular target: Neu5Gc(a2-8)Neu5Gc(a2-3)Gal(b1-4)GlcNAc
Method in brief: as §1

[30] = molecular target: Neu5Gc(a2-8)Neu5Gc(a2-3)Gal(b1-4)GlcNAc(b1-3)Gal(b1-4)GlcNAc
Method in brief: as §1

[31] = molecular target: Neu5Gc(a2-8)Neu5Gc(a2-6)Gal(b1-4)GlcNAc
Method in brief: as §1

[32] = molecular target: Neu5Gc(b2-6)Gal(b1-4)GlcNAc
Method in brief: as §1

B1: SP16664B-bot-474-25-474 (Bacteroides ovatus) (protein)
chain: CEEDIEIGNKIDESSYLASTQLSGLLLDENTNKNSSVIELRNNEYSTNVVFRLSKLPQKGVDVQIAVEESYAAIYNTIHETDFEVFPAANVKIANNGTFVLAPDDKVTPSVKVTLTAFDGMEEDKTYIVPLTVTSSTEGVTFTETSKHMVLLVQDYRNKPNTNKGEDAVQTVLYFEVNDTNPLNALEFLTESGKYFFDHIVLFAANINWDPEKQRVYLANNENVQFLLDNNDKYLQPLRKAGMKIIISILGNHDEAGVAQLSDMGAREFARELAAYCRAYNLDGVAFDDEYSNSPDLSNPWLASPSAYAGSRLMYECKAVMPEKIVSLYNLGNMYSSSLQVIDGIEPGQYCDYAVADYGGAAGPGTGMTLKQCAGMSIELRRGSGNSSESTARSRKEAGYGYYMFFALDPSLYGSQVYRCQSVCKGLYDETLVYPSYYYKKNSTEREAIN
With B1 the “glycan array binding signal (z-score)” value [1] was -0.455, the “glycan array binding signal (z-score)” value [2] was -0.398 and the “glycan array binding signal (z-score)” value [3] was -0.141. The “glycan array binding signal (z-score)” value [4] was -0.192, the “glycan array binding signal (z-score)” value [5] was -0.568 and the “glycan array binding signal (z-score)” value [6] was -0.41. The “glycan array binding signal (z-score)” value [7] was 0.151, the “glycan array binding signal (z-score)” value [8] was 0.169 and the “glycan array binding signal (z-score)” value [9] was -0.23. For the same binder, the “glycan array binding signal (z-score)” value [10] was 0.181, the “glycan array binding signal (z-score)” value [11] was 0.289 and the “glycan array binding signal (z-score)” value [12] was -0.237. For the same binder, the “glycan array binding signal (z-score)” value [13] was 1.28, the “glycan array binding signal (z-score)” value [14] was -0.091 and the “glycan array binding signal (z-score)” value [15] was -0.369. For the same binder, the “glycan array binding signal (z-score)” value [16] was -0.544, the “glycan array binding signal (z-score)” value [17] was 0.179 and the “glycan array binding signal (z-score)” value [18] was -0.181. The “glycan array binding signal (z-score)” value [19] was -0.485, the “glycan array binding signal (z-score)” value [20] was -0.321 and the “glycan array binding signal (z-score)” value [21] was -0.071. For the same binder, the “glycan array binding signal (z-score)” value [22] was -0.277, the “glycan array binding signal (z-score)” value [23] was 0.21 and the “glycan array binding signal (z-score)” value [24] was -0.304. The “glycan array binding signal (z-score)” value [25] was -0.255, the “glycan array binding signal (z-score)” value [26] was -0.171 and the “glycan array binding signal (z-score)” value [27] was -0.249. For the same binder, the “glycan array binding signal (z-score)” value [28] was -0.421, the “glycan array binding signal (z-score)” value [29] was -0.6 and the “glycan array binding signal (z-score)” value [30] was -0.622. The “glycan array binding signal (z-score)” value [31] was 0.231 and the “glycan array binding signal (z-score)” value [32] was 0.041.
